The list shows a part of the results. The full chains were built here from the parent and the listed change. Values near 0.05 are background.
B1: TEV protease; numbered along this chain (parent)
chain: MGESLFKGPRDYNPISSSICHLTNESDGHTTSLYGIGFGPFIITNKHLFRRNNGTLVVQSLHGVFKVKDTTTLQQHLVDGRDMIIIRMPKDFPPFPQKLKFREPQREERICLVTTNFQTKSMSSMVSDTSCTFPSGDGIFWKHWIQTKDGQCGSPLVSTRDGFIVGIHSASNFTNTNNYFTSVPKNFMELLTNQEAQQWVSGWRLNADSVLWGGHKVFMVKPEEPFQPVKEATQL

Variants of: B1
Test: raw area under fraction-flipped curve 0-4 h after induction (AUC4h, not background-subtracted), DNA-recorder readout of cleavage of the substrate (dimensionless); higher = more cleavage of the substrate by the protease variant
Conditions: temperature: 34 °C; time window: 0-4 h after rhamnose induction
Experimental: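 In vivo DNA recorder in E. coli TOP10(DE3) ΔrhaA at 34 °C. Each TEVp single-site mutant (parent TEVp 0) is paired with a single-site variant of the 7-mer TEVs (canonical ENLYFQ|S). The substrate sits between flexible linkers in a Bxb1-sfGFP-TEVs-SsrA fusion, so cleavage stabilises Bxb1 and speeds flipping of a recombination array, read by NGS. The value is the raw area under the fraction-flipped curve over 0-4 h after rhamnose induction (AUC4h), with ≥20 reads per time point. It is not background-subtracted; inactive controls average about 0.047.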
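Also: Bxb1 expression induced with 0.2% (w/v) L-rhamnose at OD600 near 0.5, cultures sampled hourly, flipped fraction per protease–substrate barcode pair counted by paired-end Illumina sequencing.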

Variant	area with substrate ENLYFAS	area with substrate ENLYFCS	area with substrate ENLYFDS	area with substrate ENLYFES	area with substrate ENLYFGS	area with substrate ENLYFIS	area with substrate ENLYFKS	area with substrate ENLYFLS	area with substrate ENLYFMS	area with substrate ENLYFPS
F218I	0.0544	0.0506	0.0578	0.0624	0.0551	0.0533	0.0551	0.0663	0.0676	0.0569
S154D	0.0528	0.0425		0.0467	0.0473	0.0375	0.0628	0.0527	0.0464	
G2K	0.0514	0.0587	0.0563	0.0681		0.0529	0.0559	0.062		0.0584
G2A	0.0519								0.0565	
G2T	0.0407	0.0654	0.0817						0.0614	0.0677
F92K	0.0523			0.0533		0.0563	0.0572			
F92V	0.0512			0.0618	0.0669	0.0651				0.0597
K7V	0.0402	0.0565		0.0818		0.0613				
K7W	0.0508						0.0635			
D137T	0.0334	0.0464				0.047	0.0394		0.075	
D137S	0.0598	0.0463			0.0473	0.0488	0.0562			
I145N	0.0786		0.0719	0.0786		0.0599			0.0738	0.0542
I145G	0.078		0.0524		0.0525	0.0502	0.0436			0.0806
E231I	0.0522	0.0584		0.0714	0.0468	0.0568	0.0677	0.0677	0.0613	0.0634
I84N	0.0474					0.0687				
L33D	0.0656		0.0673	0.0787		0.0555	0.0737		0.0619	0.057
R87N	0.0598	0.0477		0.0658		0.0406				0.0507
R87T	0.0621					0.0471	0.0593			
L22M	0.0318	0.0615	0.0544	0.0712		0.0543	0.0626		0.0653	0.0545

Variant	area with substrate ENLYFAS	area with substrate ENLYFCS	area with substrate ENLYFDS	area with substrate ENLYFES	area with substrate ENLYFGS	area with substrate ENLYFIS	area with substrate ENLYFKS	area with substrate ENLYFLS	area with substrate ENLYFMS	area with substrate ENLYFPS
T115R	0.0382		0.0894	0.0694	0.0697	0.0494		0.0456	0.0821	0.0632
A170E	0.0432					0.0462	0.0694		0.0562	0.0558
P228W	0.039					0.0572		0.0622	0.0682	
S18G	0.0498	0.0609	0.0596	0.0443	0.0447	0.0583	0.0453			0.0554
Q198S	0.0341				0.0543	0.0552	0.0433	0.0746	0.051	0.056
F163S	0.0387									0.0541
F163Y	0.056	0.0676				0.0539			0.0644	0.0655
S209H	0.0517			0.0598	0.0589	0.0653			0.0597	0.0494
S209E	0.081	0.0596	0.0551	0.0911					0.0654	0.0596
L235T	0.0635		0.0495			0.0454	0.0702	0.0548		0.0464
F65Q	0.0568	0.0595			0.0625	0.0505			0.0862	
G138L	0.0499					0.0585			0.0626	
G138T	0.0852			0.0638						
S121F	0.0574				0.0317	0.0535	0.053	0.0379	0.0659	0.0661
N172Q	0.0824					0.0505				0.0669
N172M	0.0462								0.0378	
N206C	0.0497	0.0571		0.0751	0.0609	0.0569	0.0612		0.0617	0.0593
Q97E	0.0591								0.0693	0.0575

Same assay, conditions: temperature: 34 °C; time window: 0-4 h after rhamnose induction

Variant	area with substrate ENLYFSS	area with substrate ENLYFWS	area with substrate ENLYFTS	area with substrate ENLYFYS	area with substrate ENLYFFS	area with substrate ENLYFNS	area with substrate ENLYFRS	area with substrate ENLYFHS	area with substrate ENLYFVS
F218I	0.0702	0.0538							
S154D			0.0531	0.0541					
G2K			0.0562		0.068	0.0666			
G2A			0.084				0.0571		
G2T		0.0506	0.0583				0.0757		
F92K					0.0641				
F92V			0.0639			0.0541	0.0375	0.0651	0.0478
K7V	0.0598	0.0616	0.0599		0.0621	0.0587	0.0628		
K7W		0.0603					0.0521		0.06
D137T	0.0511		0.0549		0.086		0.0697		0.0477
D137S			0.0685	0.0593					
I145N		0.0515	0.0595		0.0614	0.0622	0.0455	0.0753	
I145G		0.0469	0.0545	0.0564				0.0533	
E231I	0.0577		0.0487	0.0536	0.0727	0.0257	0.059		0.0654
I84N						0.0532		0.0632	
L33D	0.0497	0.0523	0.0711	0.0545	0.0583	0.0486	0.0561	0.0599	0.0494
R87T			0.0809		0.0627			0.0469	0.0137

Variant	area with substrate ENLYFSS	area with substrate ENLYFWS	area with substrate ENLYFTS	area with substrate ENLYFYS	area with substrate ENLYFFS	area with substrate ENLYFNS	area with substrate ENLYFRS	area with substrate ENLYFHS	area with substrate ENLYFVS
L22M	0.0559	0.0624	0.0436		0.0338	0.0694		0.0554	0.0502
T115R					0.0709		0.0637	0.0703	
A170E					0.0634				
P228W							0.0516		
S18G		0.0608		0.0449	0.0981	0.0559	0.0687	0.0626	0.0513
Q198S		0.0521	0.0665	0.0603	0.0609	0.0518	0.0598	0.084	0.0523
F163Y	0.0584	0.0761	0.0591	0.0481		0.0657		0.0799	0.0516
S209H			0.0741		0.0709	0.0664	0.0762	0.065	
S209E			0.0592		0.0681	0.0685			
L235T	0.0591			0.0551	0.0661	0.0704	0.0521		0.07
F65Q	0.0669		0.058				0.0609		
G138L	0.0545				0.0867	0.0614			0.0387
S121F	0.0301				0.0634		0.06		0.0558
N172Q		0.0273			0.0666		0.082		
N206C	0.0662	0.0091	0.0648	0.0561	0.071			0.0593	0.0417
Q97E			0.0424						0.0598

— the supplement of paper PMC12217912
